Drawing on patent US20250223340A1 (BIOTHEUS, published 2025), this text covers Kd, koff and kon for four molecules.

Test [1] addresses T1, mouse serum albumin (mouse, UniProt P07724 25-608).
T1 construct: Bought reagent; also called MSA
Nature of the test: BLI (ForteBio), VHH-Fc on AHQ sensor, 1:1 model.

For test [2], the target named is T2, cynomolgus serum albumin (cynomolgus).
T2 construct: Bought reagent; also called CSA
Nature of the test: BLI (ForteBio), VHH-Fc on AHQ sensor, 1:1 model.

Test [3] addresses T3, human serum albumin (human, UniProt P02768).
T3 construct: Bought reagent; also called HSA; HSA antigen
The experiment in a line: BLI (ForteBio), VHH-Fc on AHQ sensor, 100 nM antigen, 1:1 model. (Biolayer interferometry detects binding as a change in optical thickness at a sensor tip.)

B1: HSA-59 (Fc fusion)
chain: QVQLQESGGGLVQAGGSLRLSCAASGFTLDYYAIGWFRQAPGKEREEVSCISSSGGSTNYADSVKGRFTISRDNAKNTVYLQMNSLKPEDTGVYYCAAALLECRVRSWPSDNWGQGTQVTVSS[sequence of human IgG1 Fc with changes omitted]
The term Kd denotes the concentration at which binding is half-saturated. The low end stands for a tighter complex, the high end for a looser complex. The term koff denotes a measure of how fast the partners let go of each other. The term kon denotes the rate constant with which the complex forms. Low readings indicate slower complex formation, high ones faster complex formation. In the case of B1, the Kd in test [1] was 31.1 nM; in test [2] it was 77.3 nM; in test [3] it was 29.1 nM. For the same molecule, the koff is 0.0034 s⁻¹ in test [1], 0.0111 s⁻¹ in test [2] and 0.00162 s⁻¹ in test [3]. Further, the association rate constant (kon) in test [1] was 109000 M⁻¹ s⁻¹; in test [2] it was 143000 M⁻¹ s⁻¹; in test [3] it was 55500 M⁻¹ s⁻¹.

B2: HSA-PH-8 (Fc fusion)
chain: QVQLQESGGGLVQPGGSLRLSCVASGSIWGIYHMGWYRQAPGKQRELVASITVDGSTHYADTVKGRFTISKDNAANMVYLQMNALEPEDTAVYYCDIRNVGGDYWGQGTQVTVSS[sequence of human IgG1 Fc with changes omitted]
In test [1], B2 registered a Kd of 10.5 nM, a koff of 0.00288 s⁻¹ and a kon of 274000 M⁻¹ s⁻¹. Moreover, in test [2], the Kd amounted to 6.64 nM, the koff amounted to 0.0018 s⁻¹ and the kon was 271000 M⁻¹ s⁻¹. In test [3], this molecule had a Kd of 21.5 nM, a dissociation rate constant (koff) of 0.00265 s⁻¹ and a kon of 123000 M⁻¹ s⁻¹.

B3: HSA-76 (Fc fusion)
chain: QVQLQESGGGLVQPGGSLRLSCAASGSIFTFYRMAWYRRAPGKERELVALITTDTSTNYADSVKGRFTISRDYAKNTVYLQMDSLKPEDTAAYYCNVRNVERDYWGQGTQVTVSS[sequence of human IgG1 Fc with changes omitted]
In test [1], B3 registered a Kd of 31.3 nM, a koff of 0.00407 s⁻¹ and a kon of 130000 M⁻¹ s⁻¹. Moreover, in test [2], binding was characterised by a dissociation constant (Kd) of 25.7 nM, the koff came out at 0.00549 s⁻¹ and the kon came to 214000 M⁻¹ s⁻¹. Moreover, in test [3], the Kd is 797 nM, the koff came out at 0.00696 s⁻¹ and the kon was determined as 8730 M⁻¹ s⁻¹.

B4: HSA-W-20 (Fc fusion)
chain: QVQLQESGGGLVQPGGSLRLSCAASGFTLDYYAIGWFRQAPGKEREGVSCIASSGGSTNYADSVKGRFTISRDNAENTVYLQMNSLKPEDTAVYYCAAAVLECRTVVRGYDYWGQGTQVTVSS[sequence of human IgG1 Fc with changes omitted]
In test [1], B4 showed a Kd of 4.39 nM, a koff of 0.00237 s⁻¹ and a kon of 540000 M⁻¹ s⁻¹. Also, in test [2], the Kd was determined as 16.6 nM, the koff was determined as 0.00785 s⁻¹ and the kon was 473000 M⁻¹ s⁻¹. For the same molecule, in test [3], the Kd was 22.4 nM, the koff is 0.00431 s⁻¹ and the kon was determined as 193000 M⁻¹ s⁻¹.
